{
  "source": "PubChem BioAssay AID1379",
  "about": "(National Center for Advancing Translational Sciences (NCATS), 2008)",
  "note": "Screen size: about 200,000 compounds; about 560 (0.28%) were called active. Inconclusive results, whose numbers are uncertain, are shown with a selection of clear calls. Calls come from the whole dose curve; as a rule, active = well fitted inhibition curve with a large enough effect; inconclusive = small, poorly fitted or top-dose-only effect; inactive = flat fitted curve, though single readings scatter. No potency is given beside an inconclusive call; the fits are too rough. % is set by controls: 0 for no effect and ±100 for the full control effect; potency is the fitted concentration of half-maximal effect; tags give direction and shape of the fitted curve.",
  "data": [
    {"biological_target": "Luciferin 4-monooxygenase (Photuris pensylvanica) (UniProt Q27757)", "assay": "Counterscreen for Luciferase (Kinase-Glo TM) Inhibition; note: nearly all actives have a fitted effect of over 60% in size", "conditions": "ATP luminescence, 8 min; series mostly up to 38.3 µM; activity change, negative = inhibition: at the top concentration", "in_short": "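Kinase-Glo luciferase light output from ATP and luciferin was measured with 10 uM ATP, within the enzyme's linear range. Buffer: 50 mM imidazole pH 7.2, 50 mM KCl, 7 mM MgCl2, 0.01% Tween 20, 0.05% BSA; luminescence read after 8 min at ambient temperature.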", "values": [
      {"smiles": "Nc1nc2ccccc2n1C(=O)c1cccs1", "Potency": "inconclusive [inhibitor, single point]"},
      {"smiles": "Cc1ccc(Cc2cnc(NC(=O)/C(C#N)=C/c3ccc(-c4ccc([N+](=O)[O-])cc4)o3)s2)cc1", "activity change, negative = inhibition": "inactive: 3.58%"},
      {"smiles": "Oc1cc(O)cc(/C=C/c2ccc(O)c(O)c2)c1", "Potency": "inconclusive [inhibitor, partial curve]"},
      {"smiles": "Oc1ccccc1/C=N/Nc1nccnc1Cl", "Potency": "inconclusive [inhibitor, single point]"},
      {"smiles": "Fc1ccc(-c2nc3ccncc3[nH]2)cc1", "Potency": "inconclusive [inhibitor, partial curve]"},
      {"smiles": "O=C1N=C(N2CCOCC2)SC1=C1CCCCC1", "Potency": "inconclusive [inhibitor, partial curve]"},
      {"smiles": "Clc1ccc(-c2nc3n(n2)Cc2ccccc2-3)cc1", "Potency": "inconclusive [inhibitor, partial curve]"},
      {"smiles": "N#Cc1c(/N=C/c2ccco2)sc2c1CCCCC2", "Potency": "inconclusive [inhibitor, single point]"},
      {"smiles": "N#CC1(c2ccc(NC(=O)c3ccccc3)cc2)CCCC1", "Potency": "inconclusive [inhibitor, single point]"},
      {"smiles": "O=C(Oc1ccc2c(c1)OCO2)c1ccc(F)cc1Cl", "Potency": "inconclusive [inhibitor, single point]"},
      {"smiles": "O=C(Nc1nc2ccccc2[nH]1)C1CCC1", "Potency": "inconclusive [inhibitor, partial curve]"},
      {"smiles": "Cc1ccnc2nc(C(=O)Nc3ccc(N4CCOCC4)cc3)nn12", "Potency": "inconclusive [inhibitor, partial curve]"},
      {"smiles": "Cc1ccc(/C=N/NC(=O)c2ccccn2)s1", "Potency": "inconclusive [inhibitor, partial curve]"},
      {"smiles": "CC(=O)Nc1ccc(NC2=C(Cl)C(=O)c3ccccc3C2=O)cc1", "Potency": "inconclusive [inhibitor, partial curve]"},
      {"smiles": "CCCc1cc(C(=O)Nc2cccnc2)no1", "Potency": "inconclusive [inhibitor, single point]"},
      {"smiles": "O=C(c1ccco1)N1CCn2c1nc1ccccc12", "Potency": "inconclusive [inhibitor, single point]"},
      {"smiles": "O=C(COC(=O)c1cccs1)c1ccc2c(c1)OCCO2", "Potency": "active: 2.51 µM"},
      {"smiles": "N/C(=N\\OC(=O)c1ccc([N+](=O)[O-])cc1)c1ccccn1", "Potency": "active: 8.91 µM"},
      {"smiles": "COc1ccc2nc(NC(=O)C(NS(=O)(=O)c3cccc4nsnc34)C(C)C)sc2c1", "note": "(stereo not drawn)", "activity change, negative = inhibition": "inactive: -1.05%"},
      {"smiles": "O=C(NCc1ccccc1)c1csc2c1CCCCC2", "Potency": "inconclusive [inhibitor, single point]"},
      {"smiles": "O=C1C(c2ccnc3ccccc23)=C(O)c2ccccc21", "Potency": "inconclusive [inhibitor, partial curve]"},
      {"smiles": "Cc1ccc(C=C2C(=O)c3ccccc3C2=O)s1", "Potency": "active: 7.08 µM"},
      {"smiles": "CCN(C(=O)COC(=O)c1cncc(Br)c1)C1CCS(=O)(=O)C1", "note": "(stereo not drawn)", "activity change, negative = inhibition": "inactive: -2.02%"},
      {"smiles": "CCOC(=O)c1c(C)n(OCc2ccccc2)c2ccc3c(no[n+]3[O-])c12", "activity change, negative = inhibition": "inactive: -0.908%"},
      {"smiles": "CCn1c(C)nc2cc(-c3nc4n(n3)Cc3ccccc3-4)ccc21", "Potency": "active: 2.24 µM"},
      {"smiles": "Cc1ccc(C(=O)Nc2nc3c(s2)CCCC3)o1", "Potency": "inconclusive [inhibitor, partial curve]"},
      {"smiles": "COc1cc(OC)cc(C(=O)Nc2ccc(NC(=O)c3ccco3)c(Cl)c2)c1", "Potency": "inconclusive [inhibitor, partial curve]"},
      {"smiles": "CN1/C(=C/c2cc[n+](C)c3ccccc23)C=Cc2ccccc21", "Potency": "inconclusive [inhibitor, partial curve]"},
      {"smiles": "N#Cc1c(/N=C/c2cccs2)sc2c1CCC2", "Potency": "inconclusive [inhibitor, single point]"},
      {"smiles": "O=C(Nc1nc2c(s1)CCCC2)c1cccs1", "Potency": "inconclusive [inhibitor, single point]"},
      {"smiles": "NNc1nc2c(-c3ccc(F)cc3)nnn2c2ccccc12", "Potency": "inconclusive [inhibitor, single point]"},
      {"smiles": "O=C(CS(=O)(=O)c1ccccc1)c1ccc2c(c1)OCCO2", "Potency": "active: 10 µM"},
      {"smiles": "O=C(OCc1ccc(F)cc1Cl)c1ccccn1", "Potency": "inconclusive [inhibitor, single point]"},
      {"smiles": "Cc1cc(C)c(Nc2cc(S(=O)(=O)O)c(N)c3c2C(=O)c2ccccc2C3=O)c(C)c1", "Potency": "inconclusive [inhibitor, single point]"},
      {"smiles": "Cc1cccc(NC(=O)c2ccc(OC3CSC3)cc2)c1", "Potency": "inconclusive [inhibitor, single point]"},
      {"smiles": "O=Cc1ccc(-c2nc3ccccc3s2)o1", "Potency": "inconclusive [inhibitor, single point]"},
      {"smiles": "O=C(c1ccc(Br)o1)N1CCc2ccccc21", "Potency": "inconclusive [inhibitor, partial curve]"},
      {"smiles": "COc1ccc(/C=C/c2nc3ccccc3n2Cc2ccc(OC)c(OC)c2)cc1", "Potency": "inconclusive [inhibitor, partial curve]"},
      {"smiles": "Cc1ccc(CSc2nc3ccncc3[nH]2)cc1", "Potency": "active: 11.2 µM"},
      {"smiles": "CC(C)CNC(=O)NC1C(NC(=O)NCC(C)C)N(C)C(=O)N1C", "note": "(stereo not drawn)", "activity change, negative = inhibition": "inactive: -0.201%"},
      {"smiles": "COc1ccccc1C(=O)n1nc(-c2ccccc2)nc1NCc1ccco1", "activity change, negative = inhibition": "inactive: 4.1%"},
      {"smiles": "CCCC(=O)Nc1cnc(NC(=O)c2cccc(F)c2)cc1C", "Potency": "active: 7.08 µM"},
      {"smiles": "Nc1cc2sc(-c3ccc(C(=O)O)cc3)nc2cc1Cl", "Potency": "inconclusive [inhibitor, partial curve]"},
      {"smiles": "COc1cc(/C=N/Nc2ccccc2[N+](=O)[O-])ccc1OC(=O)c1ccccc1F", "Potency": "inconclusive [inhibitor, partial curve]"},
      {"smiles": "CN=c1scc(-c2ccccc2F)n1/N=C/c1ccc(O)c(O)c1O", "Potency": "active: 11.2 µM"},
      {"smiles": "Cc1oc(C(=O)Nc2ccc(C(=O)O)cc2)cc1COc1ccccc1", "activity change, negative = inhibition": "inactive: -2.78%"},
      {"smiles": "CN=c1scc(-c2cccs2)n1/N=C/c1ccccc1O", "Potency": "inconclusive [inhibitor, partial curve]"},
      {"smiles": "O=C(CSc1ccccn1)c1ccc2c(c1)OCO2", "Potency": "inconclusive [inhibitor, single point]"}
    ]}
  ]
}
